Lines with a small IC50 respond at low doses; where the fit passes the top or lowest dose, that dose stands as a limit. The AUC spans the tested range (256-fold, ending at the top dose) of the same fit; the more sensitive the line, the further below 1. For part of these data: An inferred top dose comes from the curve model; the source does not state it.
Key:
Assay in all cases: Viability of human cancer cell lines after 72 h of drug (GDSC screen)
BMX-IN-1 (QL-XII-61) = compound: C=CC(=O)Nc1cc(-n2c(=O)ccc3cnc4ccc(-c5ccc(NS(C)(=O)=O)cc5)cc4c32)ccc1C [BMX-IN-1 (QL-XII-61)]; settings: top dose 10 µM; top dose inferred
Experimental: (§1)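 Human cancer cell lines in 384-well plates, medium with 10% serum, drug for 72 h over a 256-fold dose range (nine 2-fold or five 4-fold steps up to the top dose). Adherent lines were fixed and stained with the nucleic acid dye Syto60, suspension lines read with resazurin; signal relative to control wells, capped at 0 and 100%. One two-parameter sigmoid per drug and line, fitted in a mixed model over all curves with the slope shared within a line.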

17-AAG = compound: C=CCNC1=C2C[C@@H](C)C[C@H](OC)[C@H](O)[C@@H](C)/C=C(\C)[C@H](OC(N)=O)[C@@H](OC)/C=C\C=C(/C)C(=O)NC(=CC1=O)C2=O [17-AAG]; settings: top dose 1 µM
Experimental: as §1

CCT018159 = compound: CCc1cc(-c2n[nH]c(C)c2-c2ccc3c(c2)OCCO3)c(O)cc1O [CCT018159]; settings: top dose 10 µM; top dose inferred
Experimental: as §1

BIX02189 = compound: CN(C)Cc1cccc(N=C(c2ccccc2)c2c(O)[nH]c3cc(C(=O)N(C)C)ccc23)c1 [BIX02189]; settings: top dose 20 µM; top dose inferred
Experimental: as §1

Dimethyloxalylglycine = compound: COC(=O)CNC(=O)C(=O)OC [Dimethyloxalylglycine]; settings: top dose 4000 µM; top dose inferred
Experimental: as §1

Doxorubicin = compound: COc1cccc2c1C(=O)c1c(O)c3c(c(O)c1C2=O)C[C@@](O)(C(=O)CO)C[C@@H]3O[C@H]1C[C@H](N)[C@H](O)[C@H](C)O1 [Doxorubicin]; settings: top dose 1.024 µM
Experimental: as §1

OSI-027 = compound: COc1cccc2cc(-c3nc([C@H]4CC[C@H](C(=O)O)CC4)n4ncnc(N)c34)[nH]c12 [OSI-027]; settings: top dose 20 µM
Experimental: as §1

Vismodegib = compound: CS(=O)(=O)c1ccc(C(=O)Nc2ccc(Cl)c(-c3ccccn3)c2)c(Cl)c1 [Vismodegib]; settings: top dose 10 µM; top dose inferred
Experimental: as §1

VX-11e = compound: Cc1cnc(Nc2ccc(F)cc2Cl)nc1-c1c[nH]c(C(=O)N[C@H](CO)c2cccc(Cl)c2)c1 [VX-11e]; settings: top dose 5.12 µM; top dose inferred
Experimental: as §1

TG101348 = compound: Cc1cnc(Nc2ccc(OCCN3CCCC3)cc2)nc1Nc1cccc(S(=O)(=O)NC(C)(C)C)c1 [TG101348]; settings: top dose 10.24 µM
Experimental: as §1

UNC1215 = compound: O=C(c1ccc(C(=O)N2CCC(N3CCCC3)CC2)c(Nc2ccccc2)c1)N1CCC(N2CCCC2)CC1 [UNC1215]; settings: top dose 1 µM; top dose inferred
Experimental: as §1

Cell Line | AUC (BMX-IN-1 (QL-XII-61)) | IC50 (BMX-IN-1 (QL-XII-61)) [µM] | AUC (17-AAG) | IC50 (17-AAG) [µM] | AUC (CCT018159) | IC50 (CCT018159) [µM] | AUC (BIX02189) | IC50 (BIX02189) [µM] | AUC (Dimethyloxalylglycine) | IC50 (Dimethyloxalylglycine) [µM] | AUC (Doxorubicin) | IC50 (Doxorubicin) [µM] | AUC (OSI-027) | IC50 (OSI-027) [µM] | AUC (Vismodegib) | IC50 (Vismodegib) [µM] | AUC (VX-11e) | IC50 (VX-11e) [µM] | AUC (TG101348) | IC50 (TG101348) [µM] | AUC (UNC1215) | IC50 (UNC1215) [µM]
TMK-1 (stomach, adherent) | 0.908 | > 10 | 0.496 | 0.0608 | 0.909 | > 10 | 0.977 | > 20 | 0.467 | 202 | 0.614 | 0.134 | 0.855 | 17.4 | 0.939 | > 10 | 0.964 | > 5.12 | 0.931 | > 10.2 | 0.984 | > 1
VAL (B-cell lymphoma, suspension) | 0.976 | > 10 | 0.986 | > 1 | 0.947 | > 10 | 0.807 | 10.3 | 0.495 | 243 | 0.597 | 0.118 | 0.189 | 0.147 | 0.981 | > 10 | 0.948 | > 5.12 | 0.755 | 3.48 | 0.984 | > 1
D-392MG (glioma, adherent) | 0.902 | > 10 | 0.842 | > 1 | 0.907 | > 10 | 0.868 | > 20 | 0.651 | 768 | 0.638 | 0.178 | 0.733 | 7.49 | 0.977 | > 10 | 0.954 | > 5.12 | 0.703 | 2.96 | 0.975 | > 1
RPMI-8402 (T-cell lymphoblastic leukaemia, suspension) | 0.963 | > 10 | 0.989 | > 1 | 0.933 | > 10 | 0.709 | 4.33 | 0.534 | 305 | 0.424 | 0.0411 | 0.2 | 0.197 | 0.987 | > 10 | 0.96 | > 5.12 | 0.466 | 0.525 | 0.99 | > 1
NCI-H1568 (lung adenocarcinoma, adherent) | 0.939 | > 10 | 0.9 | > 1 | 0.847 | > 10 | 0.974 | > 20 | 0.367 | 97.3 | 0.537 | 0.0827 | 0.808 | 13.6 | 0.939 | > 10 | 0.976 | > 5.12 | 0.891 | > 10.2 | 0.979 | > 1
8305C (thyroid, adherent) | 0.967 | > 10 | 0.794 | 0.629 | 0.859 | > 10 | 0.939 | > 20 | 0.628 | 630 | 0.537 | 0.083 | 0.863 | > 20 | 0.951 | > 10 | 0.942 | > 5.12 | 0.835 | 9.87 | 0.979 | > 1
IHH-4 (thyroid, semi-adherent) | 0.931 | > 10 | 0.452 | 0.0475 | 0.852 | 5.46 | 0.968 | > 20 | 0.392 | 135 | 0.185 | 0.00962 | 0.397 | 0.692 | 0.955 | > 10 | 0.902 | 4.3 | 0.947 | > 10.2 | 0.992 | > 1
MOG-G-UVW (glioma, adherent) | 0.929 | > 10 | 0.75 | 0.319 | 0.822 | 5.62 | 0.969 | > 20 | 0.621 | 533 | 0.492 | 0.0611 | 0.497 | 1.22 | 0.945 | > 10 | 0.986 | > 5.12 | 0.933 | > 10.2 | 0.976 | > 1
NCI-H1694 (small cell lung carcinoma, suspension) | 0.847 | 7.32 | 0.98 | > 1 | 0.971 | > 10 | 0.967 | > 20 | 0.529 | 300 | 0.61 | 0.129 | 0.459 | 0.967 | 0.955 | > 10 | 0.977 | > 5.12 | 0.849 | 7.64 | 0.979 | > 1
ES6 (Ewing sarcoma, adherent) | 0.828 | 8.23 | 0.928 | > 1 | 0.902 | > 10 | 0.94 | > 20 | 0.736 | 1410 | 0.656 | 0.194 | 0.717 | 6.03 | 0.982 | > 10 | 0.972 | > 5.12 | 0.869 | > 10.2 | 0.978 | > 1
NB10 (neuroblastoma, adherent) | 0.983 | > 10 | 0.877 | 0.96 | 0.933 | > 10 | 0.977 | > 20 | 0.593 | 446 | 0.657 | 0.172 | 0.767 | 7.24 | 0.988 | > 10 | 0.941 | > 5.12 | 0.852 | 7.62 | 0.985 | > 1
NCI-H720 (lung carcinoid, suspension) | 0.991 | > 10 | 0.779 | 0.373 | 0.87 | 7.98 | 0.992 | > 20 | 0.958 | > 4000 | 0.96 | > 1.02 | 0.991 | > 20 | 0.992 | > 10 | 0.991 | > 5.12 | 0.991 | > 10.2 | 0.991 | > 1

Reference: the supplement of paper PMC4967469
